Measured values taken from the RNAGym collection of RNA variant scans (doi:10.7554/elife.90254).
The source gives no read counts; variants with many changes may rest on few reads.

B1: OR4K15 (parent)
chain: GUUAACGGUCAUAGGCCAUGGAAACUAGGAGCACCAUUUCGCUGCCAGUGAAGAAAUGAACAAAGAAAAUCUGGGCCAGGCAGGCAUCAAAAGAAAUAGUCUUGCGCUCAACCAGAAAGUCUGUAAUCAUUUUAAGGGUA

Variants of: B1
Assay: self-cleavage, relative activity (ratio to wild type); higher = more cleavage; in vitro, sequencing; the parent is a self-cleaving ribozyme

Variant | self-cleavage
G29A A114U U130C | 0.03
G29A C46U U57A A117G | 1.36
G29A U49A U130C | 0.79
G29A U57C U87C A94G U108A | 0.02
G29C U102A U103C A114G | 0.03
G29U A36G U43C U70C A111G | 0.03
G29U A47G A67G A69G A110G | 0.12
G29U A55G A92G | 2.25
G29U A62G A67G G75C A116G | 0.08
G29U A63G U124C | 1.82
G29U C40U U127C | 1.51
G29U U57A U122C | 0.99
G29U U87C U122C A126G | 0.44
A30C A36U A114U | 0.03
A30C A55G G93U U127C | 1.22
A30C A56G A118G | 0.38
A30C A63G U72A G75A G115U U133C U139C | 0.02
A30C A69G A86U | 1.71
A30C A69G U87C U102C U122C | 1.87
A30C C76G A92G U108C A118G | 0.01
A30C U72C A86G | 0.2
A30G A33C U49C A89C U97C U131C | 0.3
A30G A33G A54U A95G U108C | 0.01
A30G A33G C85U A94G U102C | 0.54

Variant | self-cleavage
A30G A33G U43A A78G | 0.25
A30G A33U A86G | 1.35
A30G A36G A47G A56G A91G A118G | 1.02
A30G A36G A52G | 1.17
A30G A36G A60U A114G | 0.47
A30G A36G C112U | 0.04
A30G A36G U127C | 0.39
A30G A36U A68G | 1.12
A30G A47G A52G | 0.77
A30G A47G A69G | 1.39
A30G A47U A51U U87C A94G U97C | 0.74
A30G A51G A56G A59G A66G A67G A86G U108C | 0.09
A30G A51G A56G A69G A89U A140G | 0
A30G A51G A59G A82G U132C | 0.38
A30G A51G A62G | 1.99
A30G A51G A92G U108C | 0.01
A30G A51G A116G | 0.72
A30G A51G G75A A94U | 0.2
A30G A51U U108C A117G | 0.01
A30G A52C U131C | 0.78
A30G A52G A66G | 0.52
A30G A54G A60G | 1.16
A30G A54G A68G U131C | 1.21
A30G A54G A86G A90G | 1.03

Variant | self-cleavage
A30G A54G A89G C105U | 0.37
A30G A54U A92G | 1.81
A30G A55G A78G | 0.51
A30G A55G A91G | 0.39
A30G A55G A96G | 1.11
A30G A56G A62G | 1.2
A30G A56G A67G A129G U130C | 1.48
A30G A56G A86U U122C G137C | 1.99
A30G A56G A92C A96G | 0.37
A30G A56G A98G U127G | 0.6
A30G A56G A111G | 0.06
A30G A56G U100C C112U A114G | 0
A30G A56G U100C U120C | 2.26
A30G A56G U120C A126G | 0.88
A30G A59G A60G A82C A94G | 0.1
A30G A60G A67G | 1.32
A30G A60G A90G | 0.56
A30G A60G U70C | 0.81
A30G A60U G65A A68G A98G U122A | 0.39
A30G A62G A66G A111U | 0.07
A30G A62G C76G A114U | 0.03
A30G A62G U72A A116G | 0.05
A30G A62G U100C | 1.72
A30G A62U A82U | 0.27

Variant | self-cleavage
A30G A62U A140U | 1.11
A30G A63G A95G | 1.57
A30G A64G U103C A125G U131G | 0.11
A30G A66G A89U A94G A118G | 1.29
A30G A66U A91U A116G U120A | 0.33
A30G A67G U122C A126G U131C | 0.84
A30G A67U U87G A110G | 0.15
A30G A68G A89U A110G | 0.16
A30G A68G A118G A140C | 0.87
A30G A68G U87C A117U | 0.66
A30G A68G U100C A114G | 0.32
A30G A68G U133C | 1.32
A30G A68U A78U A111G U130C | 0.01
A30G A69G A135G | 0.5
A30G A78G A92G | 0.27
A30G A78G A92G C105U | 0.08
A30G A82G A118G | 0.08
A30G A90G U130C U131C | 0.93
A30G A91C A92G A114G G119U | 0.73
A30G A91G A95G A110G | 0.25
A30G A92G U102A A110C U130G | 0.05
A30G A94U A118G U130C | 0.51
A30G A95G U108C | 0
A30G A96G A118U | 0.8

Variant | self-cleavage
A30G A98G U139C | 0.56
A30G A114G A117U U124C | 0.19
A30G A118G U120C U127G | 0.27
A30G A118G U122C | 0.6
A30G C35U A51G U57C A89G U103C | 0.17
A30G C40A A51G A110G | 0.17
A30G C40U A111G | 0
A30G C71U U132C | 0.35
A30G C85U A140G | 0.87
A30G C128U U133A | 2.05
A30G G74A A82G C85A U102A U139C | 0.1
A30G G74U A114U A117G A126G | 0.01
A30G G80U G83U U87C A114G A117G | 0.01
A30G U37A U49C A90G U122C | 1.09
A30G U37C A47G U49A U127C | 0.67
A30G U37C A47U A78G G79U | 0.11
A30G U37C A51G A92G | 2.19
A30G U37C A56G | 1.23
A30G U37C A82G | 0.86
A30G U37G A62U U124A A125G | 1.34
A30G U38A A78G A129G | 0.15
A30G U38C A52G A54G A68G G83A A116G | 0.97
A30G U38C A62G A78G | 0.38
A30G U38C U43A U49A U102A U127G | 1.26

Variant | self-cleavage
A30G U38C U43C A110G A111G | 0.02
A30G U38C U103C A118G | 0.48
A30G U38C U127C | 1.01
A30G U39A A90G A96G | 0.43
A30G U39A U103C | 1.3
A30G U39A U130C | 1.14
A30G U39C A54G U70A G74A A89G A134U | 0.08
A30G U39C A82G | 0.44
A30G U39C A95G | 1.51
A30G U39C U72C A95G U131A | 0.61
A30G U43A U72C A78G A116U | 0.05
A30G U43A U87C A89G | 1.26
A30G U43C A68G G83A U97C A117G A140U | 1.02
A30G U43C A92G U100C U130C G136A | 2.89
A30G U43C U57A U132A | 0.87
A30G U49A A67G | 1.4
A30G U49C A129G U139C | 0.93
A30G U49G A62G A89U A98G | 0.24
A30G U49G A68G A90G | 0.59
A30G U57C A60G G73A | 0.23
A30G U57C A64G U103C A114G | 0.07
A30G U57C A86G A110G U127C | 0.03
A30G U70C A92U A116G | 1.14
A30G U70C A140G | 0.87

Variant | self-cleavage
A30G U72C U100C | 0.6
A30G U87C A90G A110G U131C | 0.02
A30G U87C A111G G137A | 0.01
A30G U87C U100C | 0.68
A30G U97C A98G U124C | 0.17
A30G U100C A116U | 0.07
A30G U100C U102A U122C | 2.02
A30G U102C U139A | 1.24
A30G U103C A129U A140U | 0.6
A30G U108C A116G U131C | 0.02
A30G U132A A135G | 0.05
A30U A36G A90G U127C | 0.42
A30U A36U U39A A82G A118G | 0.4
A30U A47G A54G U120A U122C U124C | 1.81
A30U A47G A110G A116G A126G | 0.02
A30U A47G A111G | 0.07
A30U A51G A117G | 1.04
A30U A51G U97A U132C | 0.39
A30U A52G A66G | 1.92
A30U A55G G136A | 1.1
A30U A59G A82G | 0.36
A30U A59G U72C | 0.42
A30U A59U U87C A125G | 0.43
